Measurements taken from PubChem BioAssay AID1508642 (National Center for Advancing Translational Sciences (NCATS), 2021).
Hit rate of the full screen: of about 43,000 compounds, about 200 (0.47%) were called active. Inconclusive results (about 12%) are left out. Calls follow the shape of the dose curve; as a rule, active = well fitted cell-killing curve with a large enough effect; inconclusive = small, poorly fitted or top-dose-only effect, or effect the other way; inactive = flat fitted curve, though single readings scatter. This is one part of the list.

Assay: Cell viability qHTS assay in S16 Pmp22-F2sN cells; also: nearly all actives have a fitted effect of over 65% in size
Conditions: S16 Pmp22-F2sN Schwann cells (luciferase reporters placed in the Pmp22 gene) viability, CellTiter-Glo, 24 h; series mostly up to 57.5 µM; activity change, negative = cytotoxicity: at the top concentration
Outline: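 CellTiter-Glo counter-screen, qHTS, 1536-well. Cells: S16(c9) Pmp22-F2sN, 500-1,000/well in DMEM + 10% FBS. Cpd 23 nL pin transfer, 24 h, 37C/5% CO2. Read: luminescence, CCD imager.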
% is scaled to controls: 0 for no effect and ±100 for the full control effect.

Structure (SMILES)	activity change, negative = cytotoxicity
CCC(C)Sc1oc(-c2ccco2)nc1S(=O)(=O)c1ccc(Cl)cc1 (configuration not stated)	inactive: -23.9%
CCc1ccc(NC(=O)C2CCCN(S(=O)(=O)c3cccc4nsnc34)C2)cc1 (configuration not stated)	inactive: -2.52%
COc1cc2c(cc1OC)C(COc1ccc3c(C)cc(=O)oc3c1)N(C(=O)Cc1ccccc1)CC2 (configuration not stated)	inactive: -0.504%
COC(=O)c1cc2sccc2n1CC(=O)Nc1ccc(C)cc1C	inactive: 1.92%
Cc1ccccc1OCC(=O)Nc1ccc(C(=O)OCc2cc(=O)n3ccsc3n2)cc1	inactive: 0.51%
Cc1ccccc1NC(=O)c1nc(S(C)(=O)=O)ncc1N(Cc1ccco1)Cc1sccc1C	inactive: 0.587%
CCN(C(=O)CCc1nc(-c2ccc(C)cc2)no1)c1cccc(Cl)c1	inactive: 1.48%
Cc1cc(C)c(Cn2c3ccccc3c3cnn(CC(=O)NCCC4=CCCCC4)c(=O)c32)c(C)c1	inactive: 15.3%
COc1cccc(CNC(=O)c2ccc3nc(-c4ccccc4)c(-c4ccccc4)nc3c2)c1OC	inactive: -26.1%
CCOc1ccccc1C(=O)NC1(C(F)(F)F)C(=O)Nc2c1c(=O)[nH]c(=O)n2-c1ccccc1 (configuration not stated)	inactive: 7.05%
Cc1ccc(S(=O)(=O)c2cn(Cc3ccccc3)c3cc(N4CCCC4)c(F)cc3c2=O)cc1	inactive: -3.1%
CCOC(=O)c1[nH]c2ccccc2c1NC(=O)c1ccc(OC(C)C)cc1	inactive: 4.26%
COc1cc(OC)cc(C(=O)Nc2ccc(S(=O)(=O)Nc3cc(C)nc(C)n3)cc2)c1	inactive: 1.27%
CCn1cc(S(=O)(=O)c2ccccc2)c(=O)c2cc(C)ccc21	inactive: -17.8%
CC(C)(CC(=O)OCC(=O)Nc1ccc(F)c(Cl)c1)CC1=NS(=O)(=O)c2ccccc2N1	inactive: 12.2%
COc1cc(NC(=O)c2cc3c(=O)oc4ccc(C)cc4c3s2)cc(OC)c1OC	inactive: -0.22%
O=C(CSc1nccn1-c1ccc(Cl)cc1)Nc1nc2ccccc2s1	inactive: -0.22%
COc1ccc(CCN2CC(C(=O)NCCc3ccc(C)cc3)CC2=O)cc1OC (configuration not stated)	inactive: -1.82%
CCCCn1c(COc2cccc(OC)c2)nc2ccccc21	inactive: 2.77%
Brc1ccc(-c2cc3c(N4CCN(c5ccccc5)CC4)nccn3n2)cc1	inactive: -3.9%
Cc1ccccc1NC(=O)c1sc2nc(-c3ccncc3)ccc2c1N	inactive: -14.8%
Cc1nc(C)c(-c2ccc(SCC(=O)Nc3ccccc3F)nn2)s1	inactive: 12.1%
COCCCNC(=O)CCCn1c(=O)c2cccn2c2cccnc21	inactive: 3.44%
COc1cccc(CNC(=O)CCNS(=O)(=O)c2cccc3nsnc23)c1	inactive: -1.77%
Cc1cc2ccccc2n1-c1ccc(C(=O)N2CCCCC2)s1	inactive: -27.8%
CCOC(=O)c1ccc(N2C(=O)c3n[nH]c(-c4cccs4)c3C2c2ccc(C)cc2)cc1 (configuration not stated)	inactive: 3.89%
CCCCOc1cccc(C(=O)Nc2cc3nn(-c4ccc(F)cc4)nc3cc2C)c1	inactive: 5.83%
